Reference: PubChem BioAssay AID1240 (Sanford-Burnham Center for Chemical Genomics, 2008)
The whole screen tested about 50,000 compounds, of which about 800 (1.6%) showed an effect of 50% or more. Some of the results follow.

biological target: Bcl-2-like protein 10 (Homo sapiens) (UniProt Q9HD36); assay: Phenotype converters, Bcl-B/TR3 peptide binding displacement, primary biochemical FP (AID 1240); conditions: GST-Bcl-B / FITC-TR3 peptide fluorescence polarization; stronger effect = higher value; compound at 3.75 mg/L;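 further: 0% = Bcl-B with tracer peptide and DMSO and 100% = tracer peptide lacking Bcl-B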
UniProt Q9HD36, sequence (Q9HD36 whole entry, looked up): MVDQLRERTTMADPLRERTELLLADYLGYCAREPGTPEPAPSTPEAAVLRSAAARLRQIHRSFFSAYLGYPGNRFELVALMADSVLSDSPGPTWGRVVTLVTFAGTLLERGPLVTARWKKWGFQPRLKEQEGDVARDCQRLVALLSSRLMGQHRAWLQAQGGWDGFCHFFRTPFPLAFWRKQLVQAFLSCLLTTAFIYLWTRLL

Going from `O=C(Nc1ccccc1)C(C(=O)Nc1ccccc1)C12CC3CC(CC(C3)C1)C2` to `O=C(Nc1ccccc1)NC(NC(=O)c1ccccc1)C(Cl)Cl` (stereo unspecified), the displacement rises from -6.7% to -1.7%.

Going from `COc1ccc2c(=O)cc(C(Cl)(Cl)Cl)oc2c1` to `CCCCc1c(C)[nH]c2ccc(OC)cc2c1=S`, the displacement falls from 5.6% to 0%.

Compared with `N/C(=N\OC(=O)c1ccc(Cl)c([N+](=O)[O-])c1)c1ccncc1`, `Cc1cc(C)n(C(=O)c2cc([N+](=O)[O-])ccc2Cl)n1` is higher in displacement: 1% for the first, 12.4% for the second.

Going from `CCOC(=O)C1=NNC(C(=O)c2ccc(OC)cc2)C1c1ccccc1Cl` (stereo unspecified) to `COC(=O)C1NN=C(C(=O)c2ccccc2)C1c1ccccc1` (stereo unspecified), the displacement rises from -2.6% to -1.2%.

Going from `Cc1ccc(C=C2C(=O)c3ccccc3C2=O)o1` to `O=C(O)c1ccc(-c2ccc(/C=C3/SC(=O)N(c4ccccc4)C3=O)o2)cc1`, the displacement rises from 10.9% to 27.7%.

Going from `O=C(/C=C/Nc1cccc(Cl)c1Cl)c1ccccc1` to `O=C(CCc1ccccc1)Nc1ccccc1Cl`, the displacement rises from -6.4% to 11.1%.

Compared with `Brc1ccc(CN2CCN(C3CCCC3)CC2)cc1`, `c1ccc2c(c1)N1CCN=C1N2CCN1CCCCC1` is lower in displacement: 5.6% for the first, -5.2% for the second.

Going from `COc1cc(/C=C2/SC(=S)NC2=O)cc(Cl)c1OCc1ccccc1F` to `Cc1ccc(N=C2NC(=O)/C(=C/c3ccc(O)c([N+](=O)[O-])c3)S2)cc1Cl`, the displacement rises from -9% to -4.1%.

Going from `CC(C(=O)N1c2ccccc2CCc2ccccc21)N1C(=O)c2ccccc2C1=O` (stereo unspecified) to `O=C(c1cc2ccccc2oc1=O)N1c2ccccc2Sc2ccccc21`, the displacement falls from 12.2% to 9.6%.

Going from `c1ccc(-c2nnc(SC3CCCC3)nc2-c2ccccc2)cc1` to `N#CCSc1nnc(-c2ccccc2)c(-c2ccccc2)n1`, the displacement rises from 0.1% to 3.9%.

Compared with `COc1ccc(C(=CCl)c2ccc(OC)cc2)cc1`, `COc1cccc(/C=C/C(=O)c2ccc(C)cc2)c1OC` is higher in displacement: -5.1% for the first, 0.7% for the second.

Compared with `CC(C)c1cccc(C(C)C)c1NC(=O)c1cccs1`, `CC(C)c1nnc(NC(=O)/C=C/c2ccccc2)s1` is lower in displacement: 7.8% for the first, -6% for the second.

First: CCOCn1c2ccc(Cl)cc2c2cc(Cl)ccc21
Second: Cc1ccc(Cl)cc1NC(=O)COc1cccc(C)c1C
The displacement of the first is lower: -10.7% for the first, 0.6% for the second.

Compared with `C=CCN(c1ccc(C(=O)O)cc1)S(=O)(=O)c1ccc(/C=C/C(=O)O)cc1`, `O=C(O)/C=C\C(=O)Nc1ccccc1C#Cc1ccc(Br)cc1` is higher in displacement: -32.4% for the first, -7.8% for the second.

Compared with `CCc1ccccc1NC(=O)c1cc(-c2cccs2)nc2ccccc12`, `N#C/C(=C\c1cn(CC(=O)Nc2ccccc2)c2ccccc12)C(=O)Nc1ccccc1Cl` is higher in displacement: -3.8% for the first, 126% for the second.

Compared with `O=C1C=C(Nc2ccccc2C(=O)O)CC(c2ccccc2)C1` (stereo unspecified), `CCOC(=O)c1ccccc1NC(=O)CCCOc1ccccc1` is lower in displacement: 13% for the first, -5.6% for the second.

Compared with `COc1ccccc1CNc1cc(C)ccc1OC`, `COc1ccc(C(=O)NC(c2ccccc2)c2ccccc2)cc1OC` is lower in displacement: 4.5% for the first, -0.9% for the second.

Compared with `CCN(CC)CC(C)C(C)OC(=O)c1ccc(O)cc1` (stereo unspecified), `CCOc1ccc(C2C(C(C)=O)=C(O)C(=O)N2CC2CCCO2)cc1` (stereo unspecified) is higher in displacement: -3.5% for the first, -2.6% for the second.

First: CCc1ccc(-c2csc(/C(C#N)=C/c3ccc(C)o3)n2)cc1
Second: CCOc1ccc(-c2cc(C)n3nc(C(=O)N(C)Cc4ccccc4)cc3n2)cc1
The displacement of the first is lower: -16.2% for the first, 33.6% for the second.

First: COc1ccc(C2CC(=O)C3=C(C2)Nc2ccccc2NC3c2ccccc2OC)cc1 (stereo unspecified)
Second: COc1ccc(-c2cc(-c3ccccc3)nc(-n3[nH]c(-c4ccccc4)cc3=O)n2)cc1OC
The displacement of the first is lower: -5.8% for the first, -5.1% for the second.

Compared with `CCCCOc1ccc(C(=O)Nc2cc(-c3nc4ccccc4o3)ccc2OC)cc1`, `COc1ccc(Br)cc1C(=O)Nc1cccc(-c2nc3ncccc3o2)c1C` is higher in displacement: -5.1% for the first, -3.8% for the second.

Going from `O=C(Cc1ccccc1)N1N=C(c2ccncc2)CC1(O)C(F)(F)F` (stereo unspecified) to `CCc1nc2ccccc2n1CC(O)COCc1ccccc1` (stereo unspecified), the displacement falls from -3.5% to -21.6%.

Compared with `CCOC(=O)c1c(NC(=O)C(C)Oc2ccc(OC)cc2)sc2c1CCC(C)C2` (stereo unspecified), `CCOC(=O)c1c(NC(=O)c2ccc(C(=O)c3ccccc3)cc2)sc2c1CCC2` is lower in displacement: 11.8% for the first, 10.7% for the second.

Going from `CCCC(=O)NNc1nc2c(c(=O)n1-c1ccccc1)C1(CCCCC1)Cc1ccccc1-2` to `O=C(CSc1nc2ccccc2o1)NCC(=O)c1ccccc1`, the displacement rises from -11.8% to -4.6%.

Going from `O=C(c1ccc2c(c1)OCCO2)N1CCCCC1` to `O=[N+]([O-])c1cccc(/C=N/Nc2cc(N3CCOCC3)nc(N3CCOCC3)n2)c1`, the displacement rises from -26.4% to 10.2%.

Going from `COc1ccc(/C=C/C(C)=C/C=C/C(C)=O)cc1` to `CN1C(=O)/C(=C\c2ccc(OC(=O)c3ccc(Cl)cc3)cc2)SC1=S`, the displacement rises from -10.7% to 15.8%.

Going from `CCOC(=O)c1c(C)nc(C)c(C(=O)OCC)c1-c1cccc(NC(=O)c2ccc(F)cc2)c1` to `C/C(CC(=O)Nc1cccc(F)c1)=N\NC(=O)c1ccc(O)cc1O`, the displacement rises from -4.6% to 1%.

Compared with `C=CCN1C(=O)/C(=C\c2ccc3ccccc3c2)SC1=S`, `O=c1/c(=C\c2ccc(OCc3cccc4ccccc34)cc2)sc2nc3ccccc3n12` is lower in displacement: 13.9% for the first, 11.6% for the second.

Going from `COc1cc(NC(=O)c2ccccc2Br)cc(OC)c1` to `O=C(Nc1cccc(Br)c1)c1cnccn1`, the displacement falls from 7.2% to -32.3%.

Going from `COc1ccc(-n2c(O)c(C3=c4ccccc4=NC3=O)sc2=O)cc1` to `O=C(O)c1cccc(N2C(=O)c3ccc(Oc4cccc([N+](=O)[O-])c4)cc3C2=O)c1`, the displacement falls from 10.5% to 1.6%.

Compared with `O=C(NN1C(=O)C2C3C=CC(C4CC34)C2C1=O)c1cccc(Cl)c1` (stereo unspecified), `O=C(Oc1ccc(Br)cc1/C=N/NC(=O)c1ccccn1)c1ccc(Br)cc1` is lower in displacement: -3.5% for the first, -5.9% for the second.

First: Cc1ccc(N2C(=O)NC(=O)/C(=C/c3ccc(C)c([N+](=O)[O-])c3)C2=O)cc1
Second: Cc1ccc2nc(NC3=NC(CC(=O)O)C(=O)N3)nc(C)c2c1 (stereo unspecified)
The displacement of the first is lower: -16.7% for the first, -11.3% for the second.

Going from `COC(=O)c1ccc(C2Nc3ccc4ncccc4c3C3=C2C(=O)CCC3)cc1` (stereo unspecified) to `O=C1c2ccccc2C(=O)N1CN1CCC(Cc2ccccc2)CC1`, the displacement rises from 3.8% to 10.3%.

Compared with `CC1S/C(=N/N=C/c2cccc(Br)c2)NC1=O` (stereo unspecified), `C=CCNC(=S)N/N=C/c1ccc(N(C)C)cc1` is lower in displacement: 7.2% for the first, -2.8% for the second.

Compared with `O=c1oc2c(-c3cc(Cl)ccc3Cl)cc(O)cc2s1`, `O=C(Nc1ccc(NC(=O)c2cc3ccccc3o2)cc1)c1ccco1` is lower in displacement: 5.3% for the first, 3.7% for the second.

Compound `COc1ccccc1OCC(=O)NNC(=O)C(OC)c1ccccc1` (stereo unspecified) has a displacement of -0.4%.
